In the supplement of paper PMC12067230:
Single values of this set are uncertain.

assay: amyloid nucleation score relative to library mode (yeast Sup35 reporter selection) (log enrichment difference); higher = more amyloid nucleation; sequences are the first 22 residues of the Bri2 peptide extended by up to 12 random residues; details: random library (experiment): 1;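 active = nucleation score significantly above 0 at FDR 0.05; inactive = not significantly above 0 or absent from output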
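Further: [psi-pin-] Saccharomyces cerevisiae expressing SupN fusions, induced by 100 µM Cu2SO4, selected 7 d at 30 °C without adenine and uracil, scored by deep sequencing of output versus input.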

| Sequence | amyloid nucleation score |
| --- | --- |
| EASNCFAIRHFENKFAVETLICPMLWNRVHNASG | inactive |
| EASNCFAIRHFENKFAVETLICTACVVLGHQYVP | 5.49 |
| EASNCFAIRHFENKFAVETLICALSEVRTWEYAR | inactive |
| EASNCFAIRHFENKFAVETLICREMGVRDDAVRV | inactive |
| EASNCFAIRHFENKFAVETLICPLVASAVPSGVW | -0.00976 |
| EASNCFAIRHFENKFAVETLICKGRWDLCVGLGR | 0.864 |
| EASNCFAIRHFENKFAVETLICVTA | inactive |
| EASNCFAIRHFENKFAVETLICGCVHSIECLVLA | inactive |
| EASNCFAIRHFENKFAVETLICRHRNSE | inactive |
| EASNCFAIRHFENKFAVETLICFLSWNLGLAPVR | -0.111 |
| EASNCFAIRHFENKFAVETLICLMWYPT | inactive |
| EASNCFAIRHFENKFAVETLICMTGMITIFARRG | 0.664 |
| EASNCFAIRHFENKFAVETLICCVYSNFRAYCS | 3.72 |
| EASNCFAIRHFENKFAVETLICMVDYRSLTCLRS | inactive |
| EASNCFAIRHFENKFAVETLICKSLERC | inactive |
| EASNCFAIRHFENKFAVETLICMDHNWKS | inactive |
| EASNCFAIRHFENKFAVETLICGRKRPPMWEQLK | inactive |
| EASNCFAIRHFENKFAVETLICESAGWLDARK | 1.55 |
| EASNCFAIRHFENKFAVETLICIRLVCVMVLMVK | inactive |
| EASNCFAIRHFENKFAVETLICVFLVPWNTRNVV | inactive |
| EASNCFAIRHFENKFAVETLICKR | 0.459 |
| EASNCFAIRHFENKFAVETLICRHRLVSMGLYWV | inactive |
| EASNCFAIRHFENKFAVETLICVSTRF | 0.00985 |
| EASNCFAIRHFENKFAVETLICMAYCRNGSVIKW | inactive |

| Sequence | amyloid nucleation score |
| --- | --- |
| EASNCFAIRHFENKFAVETLICHSLFQIGGTFRW | 6.36 |
| EASNCFAIRHFENKFAVETLICCIRLSFSYVSVK | inactive |
| EASNCFAIRHFENKFAVETLICRREELRTPVLDR | inactive |
| EASNCFAIRHFENKFAVETLICRPESLLGPKLRC | inactive |
| EASNCFAIRHFENKFAVETLICNAHRSRQNRTVM | inactive |
| EASNCFAIRHFENKFAVETLICLLLRG | inactive |
| EASNCFAIRHFENKFAVETLICLSCKNVTWIGLG | 3.95 |
| EASNCFAIRHFENKFAVETLICWEVSGFWRFMCR | 0.782 |
| EASNCFAIRHFENKFAVETLICQMRD | inactive |
| EASNCFAIRHFENKFAVETLICQGEYVSN | inactive |
| EASNCFAIRHFENKFAVETLICQLQSRMCFTNRS | inactive |
| EASNCFAIRHFENKFAVETLICLFTMDNSMRCM | inactive |
| EASNCFAIRHFENKFAVETLICVRGEPSRSRFGW | 1.92 |
| EASNCFAIRHFENKFAVETLICPSMCRVRSDRRK | inactive |
| EASNCFAIRHFENKFAVETLICRGATP | inactive |
| EASNCFAIRHFENKFAVETLICRRFIMV | inactive |
| EASNCFAIRHFENKFAVETLICCVQYTWF | 7.89 |
| EASNCFAIRHFENKFAVETLICRYMARCNDFTR | 2.28 |
| EASNCFAIRHFENKFAVETLICGVGE | inactive |
| EASNCFAIRHFENKFAVETLICALFNMAGAYGER | 8.41 |
| EASNCFAIRHFENKFAVETLICLSWKNQMVQTAS | inactive |
| EASNCFAIRHFENKFAVETLICRYMSGLLSALMP | inactive |
| EASNCFAIRHFENKFAVETLICGQPGGGRRSQQR | inactive |

same assay, conditions: random library (experiment): 2

| Sequence | amyloid nucleation score |
| --- | --- |
| EASNCFAIRHFENKFAVETLICVMFTGYSMCSVV | 3.77 |
| EASNCFAIRHFENKFAVETLICPLTYL | inactive |
| EASNCFAIRHFENKFAVETLICIVTMSRSLACW | inactive |
| EASNCFAIRHFENKFAVETLICVRAYYD | inactive |
| EASNCFAIRHFENKFAVETLICEPLVAYVYMLVF | inactive |
| EASNCFAIRHFENKFAVETLICKRSYVTPKNAFA | -0.0198 |
| EASNCFAIRHFENKFAVETLICLFFGIDGSHVSG | 5.91 |
| EASNCFAIRHFENKFAVETLICFASGFMFRLTTD | inactive |
| EASNCFAIRHFENKFAVETLICYMLRIILLRC | inactive |
| EASNCFAIRHFENKFAVETLICIF | 5.42 |
| EASNCFAIRHFENKFAVETLICFDLVESGRSSVY | inactive |
| EASNCFAIRHFENKFAVETLICLVDS | inactive |
| EASNCFAIRHFENKFAVETLICWSFSDRGKTFLC | inactive |
| EASNCFAIRHFENKFAVETLICFAN | inactive |
| EASNCFAIRHFENKFAVETLICRGWSNDWPWI | inactive |
| EASNCFAIRHFENKFAVETLICKLSRDDVSRQVK | inactive |
| EASNCFAIRHFENKFAVETLICTIRLWRFAMFLS | inactive |
| EASNCFAIRHFENKFAVETLICKLLFLDLWRK | inactive |
| EASNCFAIRHFENKFAVETLICVDGEGCYYSVNG | inactive |
| EASNCFAIRHFENKFAVETLICLLGNIVEVKCSQ | 6.86 |
| EASNCFAIRHFENKFAVETLICMSMWVGVAFWGI | inactive |

| Sequence | amyloid nucleation score |
| --- | --- |
| EASNCFAIRHFENKFAVETLICVFQDMKYFLCLQ | inactive |
| EASNCFAIRHFENKFAVETLICNIFMVTVERLEY | 4.65 |
| EASNCFAIRHFENKFAVETLICRNALYIYAPVSS | inactive |
| EASNCFAIRHFENKFAVETLICFPTMNVWEGVVT | 6.32 |
| EASNCFAIRHFENKFAVETLICWCSIILRTCGTS | inactive |
| EASNCFAIRHFENKFAVETLICLEDFLKLKCLCM | 4.84 |
| EASNCFAIRHFENKFAVETLICLHWSRASVCESL | inactive |
| EASNCFAIRHFENKFAVETLICYLDGRSVRFMFS | inactive |
| EASNCFAIRHFENKFAVETLICLIRSSTGWIMFL | inactive |
| EASNCFAIRHFENKFAVETLICMAKQAFSYVWGV | inactive |
| EASNCFAIRHFENKFAVETLICWCMLEMPHIMVR | inactive |
| EASNCFAIRHFENKFAVETLICFAYPSVQ | 5.72 |
| EASNCFAIRHFENKFAVETLICFVLYN | 4.21 |
| EASNCFAIRHFENKFAVETLICFEVNL | 8.49 |
| EASNCFAIRHFENKFAVETLICISLLRAQDVGYN | inactive |
| EASNCFAIRHFENKFAVETLICTSISDQAFVFVI | inactive |
| EASNCFAIRHFENKFAVETLICDALKYGDGFLPG | inactive |
| EASNCFAIRHFENKFAVETLICGYPT | 4.5 |
| EASNCFAIRHFENKFAVETLICAFNPICPDPYLA | 5.06 |
| EASNCFAIRHFENKFAVETLICANVHQLNDCFPA | inactive |

same assay, conditions: random library (experiment): 3

| Sequence | amyloid nucleation score |
| --- | --- |
| EASNCFAIRHFENKFAVETLICRKGCVGCPLCRA | inactive |
| EASNCFAIRHFENKFAVETLICLVFRCSLMRNLG | inactive |
| EASNCFAIRHFENKFAVETLICLRSVTSWARVSW | inactive |
| EASNCFAIRHFENKFAVETLICDNWR | inactive |
| EASNCFAIRHFENKFAVETLICALKLASRSIIGG | inactive |
| EASNCFAIRHFENKFAVETLICDHVNSSWARLYL | inactive |
| EASNCFAIRHFENKFAVETLICLSVFRADRLLFL | 5.42 |
| EASNCFAIRHFENKFAVETLICILMC | 3.74 |
| EASNCFAIRHFENKFAVETLICWWGMCSCRWVVR | inactive |
| EASNCFAIRHFENKFAVETLICLTLLPWK | inactive |
| EASNCFAIRHFENKFAVETLICRSSTCREICYR | 5.44 |
| EASNCFAIRHFENKFAVETLICVECVRCG | 2.91 |
| EASNCFAIRHFENKFAVETLICVWQMFWSTWRLL | inactive |
| EASNCFAIRHFENKFAVETLICVVCISDLASWWD | 5.35 |
| EASNCFAIRHFENKFAVETLICTHGASFMDWGKI | 5.03 |
| EASNCFAIRHFENKFAVETLICEGHLSYRWPMRL | inactive |

| Sequence | amyloid nucleation score |
| --- | --- |
| EASNCFAIRHFENKFAVETLICVRFCMSRHVVR | 3.36 |
| EASNCFAIRHFENKFAVETLICEGEWSP | inactive |
| EASNCFAIRHFENKFAVETLICDSWRKVYWCLMF | inactive |
| EASNCFAIRHFENKFAVETLICRMSDIMWCGSGA | 3.54 |
| EASNCFAIRHFENKFAVETLICVGQSACDQASGG | inactive |
| EASNCFAIRHFENKFAVETLICPMRMGPRQTTRG | inactive |
| EASNCFAIRHFENKFAVETLICVPRYGGVSVPLG | inactive |
| EASNCFAIRHFENKFAVETLICDYMQPMVVSSWR | inactive |
| EASNCFAIRHFENKFAVETLICRNRNLVGAGVKG | inactive |
| EASNCFAIRHFENKFAVETLICAGRESGSGMLCG | 3.47 |
| EASNCFAIRHFENKFAVETLICMFDASYLMSNLM | inactive |
| EASNCFAIRHFENKFAVETLICVIKFSYVRGAS | inactive |
| EASNCFAIRHFENKFAVETLICPNGLQRFDVYY | 7.94 |
| EASNCFAIRHFENKFAVETLICDRARAPWSVRCM | inactive |
| EASNCFAIRHFENKFAVETLICLQ | 1.18 |
